This is one part of the list. Antibody binding of pooled human sera (four to six donors per pool; dilution not stated) to peptides of the Trypanosoma cruzi antigen TSSA on microarrays. Quantile-normalised fluorescence in arbitrary units, mean of duplicate arrays; higher = more binding. No active / inactive call. The uninfected pools are read here as the healthy donors of the same country. The strongest signals lie near the top of the scale (about 60,000).

This note sets out measurements from the supplement of paper PMC10441789.

The subject of this assay is pooled sera of chronic Chagas disease patients, Brazil. The assay can be described thus: antibody binding signal (normalised fluorescence) (arbitrary fluorescence units); higher = stronger serum antibody binding to peptide. As to the method: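 Microarray of 15-residue peptides over residues 30-55 of Trypanosoma cruzi TSSAII, each with 1 to 10 substitutions at naturally variable positions, probed with one serum pool per country.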
DNKTATGEAPSQPGA came in with an antibody binding signal of 42300.

TDKKAAAGETPSPPG yielded an antibody binding signal of 2300.

Consider PPSGTEKKAAAGETP, for which the antibody binding signal amounted to 15500.

For the sequence TISTPPSGTEKKAAT, the antibody binding signal was 28400.

SGTDNKPATGEAPSQ had an antibody binding signal of 45100.

For the sequence SGKDNKAATGEAPSQ, the antibody binding signal was 33300.

The sequence GKDKKTAAGEAPSQS came in with an antibody binding signal of 460.

The sequence KKTATGEAPSPSGAS came in with an antibody binding signal of 5060.

Sequence ISTPPSGTENKAAAG had an antibody binding signal of 54900.

GTEKKPATGEAPSPS showed an antibody binding signal of 48300.

ENKTATGETPSPPGA came in with an antibody binding signal of 3940.

In the case of KDKKAATGEAPSQSG, the antibody binding signal is 18800.

With SGTDNKAAAGGTPSP, the antibody binding signal stood at 44900.

The sequence TDNKAAAGETPSQPG gave an antibody binding signal of 36300.

PPSGTENKAATGGAP gave an antibody binding signal of 47900.

In the case of GKDNKAAAGEAPSQS, the antibody binding signal came to 17500.

The sequence PPSGTDNKPATGGAP showed an antibody binding signal of 51900.

For PSGKEKKAAAGGTPS, the antibody binding signal was 6790.

In the case of TDKKTAAGEAPSQSG, the antibody binding signal turned out to be 4820.

Take KAAAGETPSQPGASS: the antibody binding signal came to 34200.

TDKKAAAGGTPSQPG: the antibody binding signal was 274.

NKTATGEAPSPPGAS: the antibody binding signal is 19500.

Sequence ENKPAAGETPSQPGA had an antibody binding signal of 41500.

On to PSGKDNKTATGGAPS, for which the antibody binding signal is 2180.

For the sequence KKAAAGGAPSQSGAS, the antibody binding signal is 180.

The sequence DNKAAAGGTPSPPGA yielded an antibody binding signal of 312.

Regarding TEKKAAAGGTPSQSG, the antibody binding signal turned out to be 214.

TEKKPATGGAPSPSG came in with an antibody binding signal of 1750.

The sequence KPAAGGTPSQSGASS returned an antibody binding signal of 350.

In turn, GKEKKTATGGAPSQP returned an antibody binding signal of 486.

Take ISTPPSGKDNKAAAG: the antibody binding signal is 2240.

Consider GKENKAAAGEAPSPP, for which the antibody binding signal was determined as 20300.

KAAAGETPSPPGASS had an antibody binding signal of 3070.

Sequence KEKKTAAGEAPSPSG gave an antibody binding signal of 176.

In turn, EKKTATGETPSQSGA gave an antibody binding signal of 4600.

TEKKTAAGGAPSQSG gave an antibody binding signal of 269.

For the sequence DNKTAAGEAPSPPGA, the antibody binding signal came out at 4320.

Sequence DKKPAAGETPSQPGA returned an antibody binding signal of 36100.

As for GKDKKTATGGTPSPS, the antibody binding signal was 221.

GKDKKPATGETPSPP came in with an antibody binding signal of 19800.
